# Source: the BET-seq Pho4 binding data (Le et al. 2018)
# Some of the results follow. Values were computed here from the reads of four pooled replicates and scatter widely.
# Target: T1, Pho4 (S. cerevisiae) (UniProt P07270)
# T1 sequence: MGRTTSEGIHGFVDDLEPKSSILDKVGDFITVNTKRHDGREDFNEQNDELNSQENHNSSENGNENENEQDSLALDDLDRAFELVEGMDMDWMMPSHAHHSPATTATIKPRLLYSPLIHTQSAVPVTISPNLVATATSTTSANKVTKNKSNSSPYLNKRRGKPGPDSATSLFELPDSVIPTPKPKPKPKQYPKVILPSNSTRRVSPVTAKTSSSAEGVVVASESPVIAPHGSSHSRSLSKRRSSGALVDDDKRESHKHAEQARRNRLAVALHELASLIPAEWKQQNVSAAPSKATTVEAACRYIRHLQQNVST
# Test: relative binding free energy (BET-seq); higher = weaker binding
# Conditions: reference: library average
row,Sequence,relative binding free energy
1,ATTGGCACGTGATCAG,-0.05 kcal/mol
2,TAGGGCACGTGTGGCC,0.04 kcal/mol
3,CGTGCCACGTGGGGGT,-0.31 kcal/mol
4,TGCAGCACGTGGTTCG,-0.06 kcal/mol
5,TGGCGCACGTGGTATA,-0.04 kcal/mol
6,TGAGACACGTGGTTAT,-0.11 kcal/mol
7,AAGATCACGTGTGTGG,0.21 kcal/mol
8,AGGAGCACGTGGTTTG,-0.04 kcal/mol
9,CTAGTCACGTGGATGG,-0.11 kcal/mol
10,TTATGCACGTGGTGAT,-0.09 kcal/mol
11,GCATGCACGTGTAGGG,-0.06 kcal/mol
12,GGTTGCACGTGTGGCG,0.07 kcal/mol
13,TTCGTCACGTGGTTCT,0.11 kcal/mol
14,TTATTCACGTGAGTTG,0.49 kcal/mol
15,AGGCGCACGTGGGGAT,-0.32 kcal/mol
16,ATGTTCACGTGTTCTA,0.15 kcal/mol
17,AGCATCACGTGATGGG,0.2 kcal/mol
18,GAGGGCACGTGCGTAG,-0.28 kcal/mol
19,TGACGCACGTGTTGGA,-0.12 kcal/mol
20,GCGTGCACGTGAGGCA,0.4 kcal/mol
21,TGTTTCACGTGGAAGT,0.35 kcal/mol
22,TTAGGCACGTGGGCCG,-0.1 kcal/mol
23,AGGGTCACGTGTTTGA,0.16 kcal/mol

row,Sequence,relative binding free energy
1,GTGATCACGTGGCAGG,-0.01 kcal/mol
2,GGGCGCACGTGATCGG,0.1 kcal/mol
3,TGCGGCACGTGTGAGT,0.01 kcal/mol
4,ATTGGCACGTGTGGTC,-0.09 kcal/mol
5,TGGGGCACGTGCAGCA,-0.21 kcal/mol
6,AATATCACGTGTATTT,0.02 kcal/mol
7,ATGATCACGTGGGTCA,0 kcal/mol
8,TAGGTCACGTGTCTAA,0.18 kcal/mol
9,GGGTACACGTGGGGTG,-0.03 kcal/mol
10,TTTATCACGTGAGGGA,0.46 kcal/mol
11,TTGGGCACGTGTCGGA,0.09 kcal/mol
12,GAGAGCACGTGGTGTC,0.1 kcal/mol
13,TGTAACACGTGCGAGG,-0.05 kcal/mol
14,GGGTGCACGTGTAACG,0.1 kcal/mol
15,TAACGCACGTGTTTTT,0.02 kcal/mol
16,TGGGGCACGTGTGAGC,-0.03 kcal/mol
17,AAGTTCACGTGTAAGG,0.28 kcal/mol
18,GTTGCCACGTGGCGGA,-0.14 kcal/mol
19,AGTTTCACGTGGTCAA,0.18 kcal/mol
20,GGTAACACGTGGCGGT,0 kcal/mol
21,AAATGCACGTGTTATT,-0.13 kcal/mol
22,TGGTGCACGTGATACG,0.11 kcal/mol
23,TGGGTCACGTGTGAAT,0.27 kcal/mol

row,Sequence,relative binding free energy
1,CGTTCCACGTGGGTAG,0.04 kcal/mol
2,GGTGCCACGTGACGTG,0.07 kcal/mol
3,TTGTTCACGTGGTATC,0.36 kcal/mol
4,CTTCGCACGTGGTGTT,-0.28 kcal/mol
5,TGGTTCACGTGTAGCG,0.25 kcal/mol
6,AAGAGCACGTGCGGTG,-0.16 kcal/mol
7,TTTGCCACGTGATGAG,-0.05 kcal/mol
8,TGGGGCACGTGACTGA,0.08 kcal/mol
9,TTGATCACGTGTGTGG,0.18 kcal/mol
10,ATTGTCACGTGATATA,0.26 kcal/mol
11,TTAGTCACGTGTGCGA,0.08 kcal/mol
12,TAGGGCACGTGGCGAG,-0.16 kcal/mol
13,TAATTCACGTGGGCTT,0.2 kcal/mol
14,ATGAACACGTGGGTTG,-0.06 kcal/mol
15,AGGGGCACGTGTGTCG,-0.06 kcal/mol
16,TTATCCACGTGGTGTG,-0.09 kcal/mol
17,TGGGGCACGTGAACGT,0.17 kcal/mol
18,TATCGCACGTGAGGGC,0.14 kcal/mol
19,TGTTGCACGTGTGGTC,0.11 kcal/mol
20,GTTTACACGTGTATAA,0.23 kcal/mol
21,TAGTACACGTGTTTGC,-0.09 kcal/mol
22,CATTTCACGTGTTTTT,0.28 kcal/mol
23,GGTTTCACGTGTAACT,0.46 kcal/mol

row,Sequence,relative binding free energy
1,TGTTACACGTGAAGTG,0.34 kcal/mol
2,GTCTGCACGTGGGCGT,-0.15 kcal/mol
3,AAATGCACGTGTTGTG,-0.03 kcal/mol
4,TATGACACGTGATTTT,0.32 kcal/mol
5,GGTGACACGTGGGTTC,-0.01 kcal/mol
6,GTTTGCACGTGGGGCT,-0.11 kcal/mol
7,TCGTTCACGTGAGCTT,0.37 kcal/mol
8,TGGTGCACGTGGTTAG,-0.14 kcal/mol
9,TAGGCCACGTGGGAAT,-0.03 kcal/mol
10,GAATGCACGTGAGAGG,0.16 kcal/mol
11,TGCAACACGTGGGTGA,-0.09 kcal/mol
12,TCAGTCACGTGTCTGG,0.21 kcal/mol
13,TGAGGCACGTGAGTGC,0.26 kcal/mol
14,TGGGACACGTGAGCTG,0.25 kcal/mol
15,TCTAGCACGTGGTAGT,-0.11 kcal/mol
16,TGATGCACGTGGCGGG,-0.13 kcal/mol
17,CCGGACACGTGGAGGT,0.21 kcal/mol
18,ATCGTCACGTGGGAGA,0.14 kcal/mol
19,TTATGCACGTGTAAAG,-0.03 kcal/mol
20,TGTTTCACGTGCGGAC,0.17 kcal/mol
21,TTATACACGTGGTAGG,0.03 kcal/mol
22,GTTGGCACGTGGAGTC,0.04 kcal/mol
23,TTGGTCACGTGCTTGA,0.18 kcal/mol

row,Sequence,relative binding free energy
1,GGAATCACGTGGGACG,0.13 kcal/mol
2,TTATTCACGTGTCATA,0.18 kcal/mol
3,GATTGCACGTGCATGT,-0.02 kcal/mol
4,TGTTCCACGTGTTAAT,0.03 kcal/mol
5,CTGTACACGTGGTTCG,0.12 kcal/mol
6,GGGCTCACGTGGGGTA,0.18 kcal/mol
7,TTTAACACGTGCGGTC,0.07 kcal/mol
8,ACCGGCACGTGTGGTT,0.02 kcal/mol
9,GTAGACACGTGCGGTG,-0.17 kcal/mol
10,AGAGGCACGTGGGATC,-0.05 kcal/mol
11,CATGGCACGTGTGATG,-0.14 kcal/mol
12,CGGGGCACGTGACCGG,-0.12 kcal/mol
13,GTGATCACGTGTTCGG,0.28 kcal/mol
14,AGATACACGTGGTTTG,-0.13 kcal/mol
15,CTAGACACGTGGGTGT,-0.15 kcal/mol
16,TTCATCACGTGTGAAT,0.27 kcal/mol
17,CAGTTCACGTGTGGCG,0.2 kcal/mol
18,GGGTGCACGTGCAAGT,0.1 kcal/mol
19,AGGAGCACGTGGGCGA,-0.25 kcal/mol
20,TGTTACACGTGACATG,0.22 kcal/mol
21,GATGACACGTGAGTGT,0.31 kcal/mol
22,GTGGACACGTGTTGTC,0.12 kcal/mol
23,TCTTACACGTGTGTAG,0.16 kcal/mol
